# Reference: the supplement of paper PMC10670038
# Where a name gives a salt, the structure may show the parent alone. ± gives the standard deviation of the averaged measurements. In all, about 2,000 compounds were measured (“relative cell viability vs DMSO, compound + 0.2 uM CuET”: median about 1, lowest 2% from about 0.25 on). The list shows a part of the results.
# System: TE10
# Assay: relative cell viability vs DMSO, compound + 0.2 uM CuET (fraction); TE10 is an esophageal squamous carcinoma line; higher = less cytotoxic
# Conditions: 2 µM; co-treatment: CuET (bis(diethyldithiocarbamate)copper) 0.2 uM; 48 h
# Method: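 TE10 ESCC cells (1,000/well, 384-well plates) were treated with Selleck bioactive library compounds at 2 uM combined with 0.2 uM CuET (copper diethyldithiocarbamate) for 48 h. Viability was read by CellTiter-Glo and expressed relative to DMSO wells. Two technical replicates (A, B).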
row,SMILES,relative cell viability
1,Cc1cc(Cn2cnc3c2CC(C(=O)O)N(C(=O)C(c2ccccc2)c2ccccc2)C3)ccc1N(C)C (stereo not drawn),1.12 ± 0.098
2,Cc1ccc(S(=O)(=O)NC(=O)NN2CC3CCCC3C2)cc1 (stereo not drawn) [Gliclazide],1.12 ± 0.047
3,O=C(O)CCNc1cc(N2CCc3ccccc3CC2)nc(-c2ccccn2)n1,0.765 ± 0.0059
4,Cc1cc([N+](=O)[O-])ccc1NS(=O)(=O)c1cc(Cl)ccc1Cl,0.954 ± 0.1
5,COc1ccc(COc2ccc(Cc3cnc(N)nc3N)cc2OC)cc1,1.024 ± 0.0044
6,Cc1ccc(C(=O)c2cc(O)c(O)c([N+](=O)[O-])c2)cc1 [Tolcapone],1.08 ± 0.18
7,COc1ccc2[nH]cc(CCNC(C)=O)c2c1 [Melatonin],1.12 ± 0.061
8,O=C([O-])c1ccccc1O.[Na+] [Sodium salicylate],1.15 ± 0.069
9,C=CC[C@@H]1/C=C(\C)C[C@H](C)C[C@H](OC)[C@H]2O[C@@](O)(C(=O)C(=O)N3CCCC[C@H]3C(=O)O[C@H](/C(C)=C/[C@@H]3CC[C@@H](O)[C@H](OC)C3)[C@H](C)[C@@H](O)CC1=O)[C@H](C)C[C@@H]2OC [Tacrolimus (FK506)],1.07 ± 0.11
10,O=C(N/N=C/c1ccc(O)c(O)c1)c1cc2ccccc2cc1O [Dynasore],0.85 ± 0.071
11,CN(C)Cc1cccc(N=C(c2ccccc2)c2c(O)[nH]c3cc(C(N)=O)ccc23)c1,0.952 ± 0.014
12,CCN(CC)CC#CCOC(=O)C(O)(c1ccccc1)C1CCCCC1 (stereo not drawn) [Oxybutynin],0.995 ± 0.059
13,CCN(CC)CC#CCOC(=O)C(O)(c1ccccc1)C1CCCCC1 (stereo not drawn) [Oxybutynin chloride],0.994 ± 0.084
14,O=C(Cc1cccc(OC(F)(F)F)c1)Nc1ccc(CCCCc2nnc(NC(=O)Cc3ccccn3)s2)nn1,0.501 ± 0.083
15,Cc1ncc([N+](=O)[O-])n1CCO [Metronidazole],1.079 ± 0.0041
16,CC(=O)O/N=C1\C(=O)N(Cc2cc(Cl)ccc2Cl)c2ccc(Cl)cc21,1 ± 0.055
17,CCN(Cc1ccncc1)C(=O)C(CO)c1ccccc1 (stereo not drawn) [Tropicamide],1.1 ± 0.071
18,CCN1CCN(C(=O)N[C@@H](C(=O)N[C@@H]2C(=O)N3[C@@H]2SC(C)(C)[C@@H]3C(=O)O)c2ccccc2)C(=O)C1=O [Piperacillin Sodium],1.34 ± 0.12
19,CO[C@@H]1[C@@H](OC(N)=O)[C@@H](O)[C@H](Oc2ccc3c(O)c(NC(=O)c4ccc(O)c(CC=C(C)C)c4)c(=O)oc3c2C)OC1(C)C [Novobiocin Sodium],0.877 ± 0.068
20,O=Nc1c(-c2c(O)[nH]c3cc(Br)ccc23)[nH]c2ccccc12,1.083 ± 0.0023
21,CN(NC(=O)CC(=O)NN(C)C(=S)c1ccccc1)C(=S)c1ccccc1 [Elesclomol (STA-4783)],0.0573 ± 0.0087
22,CC(C)C[C@H](NC(=O)[C@H](CCc1ccccc1)NC(=O)CN1CCOCC1)C(=O)N[C@@H](Cc1ccccc1)C(=O)N[C@@H](CC(C)C)C(=O)[C@@]1(C)CO1 [Carfilzomib (PR-171)],0.198 ± 0.019
23,COc1ccc(-n2c(C)c([N+](=O)[O-])c3ccc(O)cc32)cc1,1.031 ± 0.0057
24,O=S(=O)(c1ccccc1)c1cnc2c(N3CCNCC3)cccc2c1,1.06 ± 0.037

row,SMILES,relative cell viability
1,NC(=O)N/N=C/c1ccc([N+](=O)[O-])o1 [Nitrofural],1.3 ± 0.033
2,O=C(O[C@H]1CN2CCC1CC2)N1CCc2ccccc2[C@@H]1c1ccccc1 [Solifenacin succinate],1.22 ± 0.053
3,CC(=O)OCOC(=O)CN(CC(=O)OCOC(C)=O)c1ccccc1OCCOc1ccccc1N(CC(=O)OCOC(C)=O)CC(=O)OCOC(C)=O,0.6484 ± 0.0064
4,O=C(c1ccc(F)cc1)N1CCCC(c2nc(-c3ccc(F)cc3)no2)C1 (stereo not drawn),1.12 ± 0.22
5,CN1CCCC(n2nc(Cc3ccc(Cl)cc3)c3ccccc3c2=O)CC1 (stereo not drawn) [Azelastine HCl],1.02 ± 0.069
6,CC1=CC(=O)NS(=O)(=O)O1 [Acesulfame Potassium],1.06 ± 0.05
7,CN(C)CCC[C@@]1(c2ccc(F)cc2)OCc2cc(C#N)ccc21 [Escitalopram Oxalate],1 ± 0.086
8,CCCC(=O)Nc1ncnc2c1ncn2[C@@H]1O[C@@H]2COP(=O)(O)O[C@H]2[C@H]1OC(=O)CCC [Dibutyryl-cAMP (Bucladesine)],1.15 ± 0.072
9,CC(C)C[C@@H](C=O)NC(=O)[C@H](CC(C)C)NC(=O)[C@H](CC(C)C)NC(=O)OCc1ccccc1,0.223 ± 0.006
10,CCN(CC)Cc1ccc2cc(COC(=O)Nc3ccc(C(=O)NO)cc3)ccc2c1 [Givinostat (ITF2357)],0.192 ± 0.018
11,CC(=O)Oc1cccc2c1C(=O)c1c(OC(C)=O)cc(C(=O)O)cc1C2=O [Diacerein],1.13 ± 0.053
12,CC(C)(C#N)c1ccc(N2C(=O)OCc3cnc4ccc(-c5cnc6ccccc6c5)cc4c32)cc1,0.296 ± 0.035
13,N=C(N)NC(=N)N1CCOCC1 [Moroxydine HCl],1.17 ± 0.034
14,CCCC(=O)O[C@]1(C(=O)COC(C)=O)CC[C@H]2[C@@H]3C[C@H](F)C4=CC(=O)C=C[C@]4(C)[C@@]3(F)[C@@H](O)C[C@@]21C [Difluprednate],1.1 ± 0.07
15,COc1ccc(NS(=O)(=O)c2ccc(N)cc2)nn1 [Sulfamethoxypyridazine],1.13 ± 0.041
16,Nc1ccc(C(=O)NCC(=O)O)cc1 [4-Aminohippuric Acid],1.09 ± 0.062
17,CNc1nc(Nc2cnn(C3CCN(C4COC4)CC3F)c2Cl)ncc1C(F)(F)F (stereo not drawn),1.195 ± 0.0015
18,O=C(c1ccc(C(=O)N2CCC(N3CCCC3)CC2)c(Nc2ccccc2)c1)N1CCC(N2CCCC2)CC1,1.19 ± 0.1
19,OC[C@H]1O[C@@H](Oc2ccc(O)cc2)[C@H](O)[C@@H](O)[C@@H]1O [Arbutin],1.05 ± 0.076
20,CN(C)CCc1c[nH]c2ccc(Cn3cncn3)cc12 [Rizatriptan Benzoate],1.14 ± 0.042
21,CC(c1cc2ccccc2s1)N(O)C(N)=O (stereo not drawn) [Zileuton],1.282 ± 0.0068
22,CC1=C(C(=O)OC2CCCCC2)C(c2ccc([N+](=O)[O-])cc2)C2=C(CC(C)(C)CC2=O)N1 (stereo not drawn),1 ± 0.075
23,C[C@@H]1C(=O)O[C@H]2C[C@@]34[C@H]5C[C@@H](C(C)(C)C)[C@]36[C@@H](OC(=O)[C@@H]6O)O[C@@]4(C(=O)O5)[C@]21O [Ginkgolide A],1 ± 0.025
24,NC(=O)c1ncn([C@@H]2O[C@H](CO)[C@@H](O)[C@H]2O)c1N [Acadesine],0.967 ± 0.043
